A number of entries come with more than one value. The other results are left out here. There may be further records. The values listed for one entry seem to repeat one measurement on other runs, samples or individuals. Marks in square brackets tell the records apart. A, B and so on number the origins entry by entry. Non-standard residues stand in square brackets, D forms with d. Residues, ends and D or L forms follow the SMILES beside them. *: point of attachment. X1 = O=C(CCCC[C@@H]1SC[C@@H]2NC(=O)N[C@@H]21)NCCCOCCOCCOCCCN*; PEG12 = NCCOCCOCCOCCOCCOCCOCCOCCOCCOCCOCCOCCOCCC(=O)O
System: H1299 cells
Experiment: In vitro saporin delivery, cell viability (CellTiter-GLO)
Assay type: cell-based, human
Conditions: H1299, up to 200 nM, 6 h exposure, viability at 72 h
Protocol: Fig. 4 MGS4_V8 effectively delivers active saporin to cancer cells. a H1299 cells were incubated biotinylated MGS4_V8 conjugated to streptavidin-saporin for 1 h, then washed, fixed and counterstained with an anti-saporin antibody (red), WGA-AF488 (green) and DAPI (blue). MGS4_V8 successfully delivers saporin into cancer cells while the control peptide, MGS4_V6 cannot. b MGS4_V8 and MGS4_V9 saporin-conjugates were serially diluted and incubated with H1299 and H2009 cells for 6 h after which, the MGS4-saporin conjugates were removed and complete growth media returned to the wells. At 72 h, viability was measured. IC50 values are provided in the inset. Individual measurements are shown. The mean is shown as an “X”. […]
The ability of MGS4_V8-saporin conjugate to induce cell death was determined.
Biotinylated peptide was conjugated to streptavidin-saporin (Advanced Targeting Systems Bio, San Diego, CA) in a 1:1 molar ratio. […] After 72 h, cell viability was measured using CellTiter-GLO® (Promega, Madison, WI). […] IC50s were calculated using GraphPad Prism® using log(agonist) vs. response–Variable slope (four parameters). […]
For all EC50 determinations, each peptide variant was tested on the indicated cell line with a minimum of 3 biological replicates and analyzed individually by flow cytometry. […] For the truncation experiments, EC50 were determined using one-site-specific binding. […]

## CC(=O)N[C@@H](Cc1ccccc1)C(=O)N[C@@H](Cc1c[nH]cn1)C(=O)N[C@@H](C)C(=O)N[C@H](C(=O)N1CCC[C@H]1C(=O)N[C@@H](CCC(N)=O)C(=O)N[C@@H](CO)C(=O)N[C@@H](Cc1ccccc1)C(=O)N[C@@H](Cc1ccc(O)cc1)C(=O)N[C@H](C(=O)NCCOCCOCCOCCOCCOCCOCCOCCOCCOCCOCCOCCOCCC(=O)N[C@@H](CCC(=O)NCCCOCCOCCOCCCNC(=O)CCCC[C@@H]1SC[C@@H]2NC(=O)N[C@@H]21)C(N)=O)[C@@H](C)O)C(C)C [MGS4_V8] (Ac-FHAVPQSFYT[PEG12]E(X1)-NH2)
  toxicity without saporin: showed any toxicity [passage A] and No reduction [passage B]

Reference: publication PMC9845330 (Communications Biology, 2023)
